Results: publication PMC4336329 (PLoS ONE, 2015)
Out of some 310,000 compounds screened, about 2,200 (0.71%) showed an effect of 50% or more. Effects have a minus sign here. This is one part of the list.

molecular target: human ether-à-go-go-related gene (hERG) potassium channel (human, UniProt Q12809); assay: primary screen, population patch clamp on CHO cells stably expressing hERG
Sequence (Q12809 whole entry, looked up): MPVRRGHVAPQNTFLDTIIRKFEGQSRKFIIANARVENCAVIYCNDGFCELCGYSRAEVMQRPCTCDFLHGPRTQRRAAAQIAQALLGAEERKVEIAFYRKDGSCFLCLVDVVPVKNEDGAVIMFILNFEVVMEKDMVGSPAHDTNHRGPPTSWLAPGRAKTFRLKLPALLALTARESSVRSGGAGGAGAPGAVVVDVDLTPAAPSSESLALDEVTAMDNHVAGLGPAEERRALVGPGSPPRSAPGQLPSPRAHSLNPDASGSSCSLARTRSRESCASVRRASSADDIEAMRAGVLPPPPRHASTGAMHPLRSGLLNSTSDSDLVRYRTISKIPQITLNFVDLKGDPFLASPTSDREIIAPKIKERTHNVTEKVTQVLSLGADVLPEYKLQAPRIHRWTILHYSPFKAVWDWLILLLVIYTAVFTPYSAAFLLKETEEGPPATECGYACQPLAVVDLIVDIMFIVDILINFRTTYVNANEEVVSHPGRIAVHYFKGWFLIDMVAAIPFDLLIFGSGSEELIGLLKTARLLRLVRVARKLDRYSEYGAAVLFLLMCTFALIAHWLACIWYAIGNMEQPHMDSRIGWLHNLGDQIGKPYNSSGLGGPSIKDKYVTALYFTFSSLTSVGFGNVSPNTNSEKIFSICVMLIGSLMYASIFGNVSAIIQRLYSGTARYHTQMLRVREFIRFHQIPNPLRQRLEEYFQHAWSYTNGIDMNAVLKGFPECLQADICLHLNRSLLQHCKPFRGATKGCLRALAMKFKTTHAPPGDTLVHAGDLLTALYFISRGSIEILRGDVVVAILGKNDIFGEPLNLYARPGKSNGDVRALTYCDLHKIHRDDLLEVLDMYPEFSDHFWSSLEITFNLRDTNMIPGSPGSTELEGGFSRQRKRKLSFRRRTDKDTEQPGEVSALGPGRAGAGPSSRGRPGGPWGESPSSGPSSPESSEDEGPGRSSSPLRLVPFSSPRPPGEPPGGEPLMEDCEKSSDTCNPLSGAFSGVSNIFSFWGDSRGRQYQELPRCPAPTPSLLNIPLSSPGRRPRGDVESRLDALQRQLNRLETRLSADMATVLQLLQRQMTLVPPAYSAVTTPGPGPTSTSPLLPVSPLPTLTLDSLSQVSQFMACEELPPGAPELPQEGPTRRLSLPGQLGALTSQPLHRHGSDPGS

In order of rising “hERG current change (%, negative = inhibition) at 1uM” value:
1. CN1CCN(c2c(/C=N/O)c3ccccc3n2C)CC1  -19.4%
2. Cc1ccc(C(=O)N2CCN(c3ccc(NC(=S)NC(=O)Cc4ccccc4)cc3)CC2)cc1  -7.4%
3. CCOc1ccc(C(=O)COC(=O)C2CCN(c3ccc(C(F)(F)F)cn3)CC2)cc1  -5.7%
4. Cc1ccc(N(CC2CO2)S(=O)(=O)c2ccc([N+](=O)[O-])cc2)cc1 (centres unmarked)  -3.91%
5. O=C(Cn1cnnn1)NCCc1ccc(Cl)cc1Cl  -3.37%
6. CCCn1cc2c(c1-c1ccc(C)cc1)c(=O)n(C)c(=O)n2C  -2.98%
7. C=CCc1ccccc1OCC(O)CN1C(=O)c2ccccc2C1=O (centres unmarked)  -1.02%
8. CCN(CC(=O)NCc1ccc(Cl)cc1)C(=O)CSc1cccc(C(F)(F)F)c1  -0.764%
9. Cc1nnc(Oc2ccccc2)c2ccccc12  0.148%
10. CCCOc1ccc(N2C(=O)CC(N(Cc3ccc(OC)cc3)C(=S)Nc3ccccc3)C2=O)cc1 (centres unmarked)  0.174%
11. Cc1cc(=O)[nH]c(/N=C(\N)Nc2ccc(SC(F)F)cc2)n1  1.96%
12. CCN(c1ccccc1)S(=O)(=O)c1ccc(C(=O)N2CC(C)CC(C)C2)cc1 (centres unmarked)  2.3%
13. O=C1CSC(=S)N1CC1CCCO1 (centres unmarked)  2.8%
14. CC1(C)OC2CC3C4CC(F)C5=CC(=O)C=CC5(C)C4(F)C(O)CC3(C)C2(C(=O)CO)O1 (centres unmarked)  3.44%
15. Cc1cccc(NS(=O)(=O)c2cccc(C(=O)N3CCN(C/C=C/c4ccccc4)CC3)c2)c1  3.68%
16. Cc1ccc2nc(-c3ccc(NC(=O)CN(C)S(=O)(=O)c4ccccc4)cc3)sc2c1  3.78%
17. Cc1ccc(C(=O)Nc2ccccc2N2CCN(C(=O)C(C)C)CC2)cc1C  4.06%
18. COc1ccc(C(=O)OCC(=O)Nc2ncc([N+](=O)[O-])s2)cc1OC  4.09%
19. CCN(CC)C(=O)CSc1nc2ccccc2c(=O)n1CCC(=O)NCCc1ccc(OC)c(OC)c1  4.25%
20. O=C(COC(=O)c1ccc2c(c1)S(=O)(=O)c1ccccc1C2=O)NC1CC1  4.43%
21. CCN(CC)S(=O)(=O)c1cccc(C(=O)NC(C(=O)Nc2nnc(C)s2)C(C)C)c1 (centres unmarked)  5.37%
22. CSCCC(NC(=O)C1CCC(C)CC1)C(=O)Nc1ccc(NC(C)=O)cc1 (centres unmarked)  5.76%
23. COCCN(C(=O)Cc1ccc(OC)c(OC)c1)c1nc(-c2cc(OC)ccc2OC)cs1  7.34%
24. Cc1cccc(C)c1NC(=O)c1sc(Cl)nc1C  7.42%
25. COc1ccc2sc3ccccc3c(=O)c2c1  7.65%
26. CCN(CC(=O)Nc1c(F)cccc1F)C(=O)C1CC1C (centres unmarked)  7.94%
27. CCCC(=O)Nc1ccc(C(=O)NNC(=S)NC(=O)c2ccc(Br)o2)cc1  7.94%
28. CNC(=O)CSc1nnnn1-c1ccc2c(c1)OCCO2  8.48%
29. O=C(c1cccs1)N1N=C(c2ccccc2)CC1c1ccc(O)cc1 (centres unmarked)  8.62%
30. Cc1cc(C)c(C)c(OC(=O)c2sc(Cl)nc2C)c1  9.78%
31. O=C(Cn1c(C(=O)NCc2ccco2)cc2sccc21)c1ccccc1  10.5%
32. COc1cc2cc(C(=O)N3CCN(Cc4ccc5c(c4)OCO5)CC3)c(=O)oc2cc1OC  11%
33. CCC1CCc2sc(C(=O)NCC3CCCO3)cc2C1 (centres unmarked)  11.8%
34. CCN(CC)S(=O)(=O)c1ccc(C)c(NC(=O)CSc2nc3ccc(C)cc3[nH]2)c1  12.1%
35. CCOC(=O)[C@@H]1CCNC[C@@H]1c1ccccc1.Cl  12.6%
36. O=C(Cc1ccccc1)N/N=C/c1ccccn1  12.8%
37. CCn1cc(C(=O)OCC(=O)c2cc(C)n(-c3ccccc3)c2C)c(=O)c2ccc(C)nc21  12.9%
38. COC(C(=O)Nc1ccnn1C1CCN(C(=O)c2cccc(F)c2)CC1)c1ccccc1 (centres unmarked)  13.1%
39. Cc1ccc(C(=O)O/N=C(\N)c2ccc(Br)cc2)cc1  13.3%
40. O=C1NC(C(=O)O)=CC(c2cccc(Cl)c2Cl)N1 (centres unmarked)  13.3%
41. CCN(CC)c1ccc(/C=N/n2nnnc2N)c(O)c1  13.6%
42. CC1Cc2ccccc2N1C(=O)c1cnc2sccn2c1=O (centres unmarked)  13.9%
43. CCN(CC(=O)Nc1ccc(OC)cc1)C(=O)CSCC(=O)Nc1cc(C)on1  14%
44. Cn1nnc2sc3c(c2c1=O)CCCC3  14.3%
45. Cc1cc(C)c(C(=O)/C=C/c2ccc(C(C)C)cc2)c(=O)[nH]1  15.2%
46. Cc1ccc(S(=O)(=O)CCc2nnc(N)s2)cc1C  15.2%
47. CCS(=O)(=O)N1CCC(C(=O)Nc2ccc(C(C)=O)cc2)CC1  15.5%
48. Cc1cc(C)cc(OCc2nnc(SCC(=O)c3ccccc3)o2)c1  15.6%
49. N#Cc1ccc(C(=O)Nc2cc(S(=O)(=O)Nc3ccc(Cl)cc3)ccc2N2CCCCC2)cc1  15.7%
50. O=C(Cc1cccc2ccccc12)Nc1cc(Cl)ccc1C(=O)O  16.9%
51. COc1cccc(CCc2nnc(CCC(=O)NCCC3CCCCO3)o2)c1 (centres unmarked)  17.5%
52. CCOc1ccc(NC(=O)CSc2nnnn2-c2ccc(C(N)=O)cc2)cc1  17.6%
53. O=C(Cc1ccc(Br)cc1)Nc1ccc(S(=O)(=O)Nc2ncccn2)cc1  17.7%
54. CC(C)OC(=O)Cn1c(-c2ccccc2)c(-c2ccccc2)nnc1=O  18%
55. CCc1c(O)nc(SCc2nc3ccccc3c(=O)[nH]2)[nH]c1=O  21%
56. Cn1c(N2CCN(C(=O)NC34CC5CC(CC(C5)C3)C4)CC2)nc2ccccc21  23%
